According to PubChem BioAssay AID743279 (National Center for Advancing Translational Sciences (NCATS), 2014):
The whole screen tested about 360,000 compounds, of which about 17,000 (4.7%) were called active. Inconclusive results, whose numbers are uncertain, are shown with a selection of clear calls. No stated cut-off is given here; in the data, active means activity change below about -50%; inconclusive means mostly about -30% to -49%; inactive means weaker than that.

Experiment: qHTS for Inhibitors of Inflammasome Signaling: IL-1-beta AlphaLISA Primary Screen
Conditions: THP-1 LPS/ATP IL-1B secretion, 16 h; at 57.5 µM, hits give low values
Outline: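 Secreted IL-1B measured by AlphaLISA bead assay after 16 h compound exposure of THP-1 cells; compounds (final up to 57.5 uM) added 1 h before LPS (250 ng/mL) and ATP (1.25 mM) stimulation; lower signal means less secretion.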
On the % scale 0 is the no-effect control and ±100 the full control effect.

Compound	activity change
CCN1C(=O)/C(=c2\sc3nc(=O)c(Cc4ccccc4)nn3c2=O)c2ccccc21	inactive: 4.76%
Cc1onc(-c2c(F)cccc2Cl)c1C(=O)Nc1nnc(C(F)(F)F)s1	inconclusive: -44.1%
OCCNc1c2ccccc2nc2c(F)c(F)c(F)c(F)c12	active: -92.6%
C=C(C)c1cccc(C(C)(C)NC(=O)N2CCN(C/C=C/c3ccccc3)CC2)c1	inconclusive: -46%
O=C(O)c1ccc2c(c1)C(=O)N(c1nccs1)C2=O	inactive: 14.3%
CC(C)CNC(=S)NC(=O)c1ccc(F)cc1	inactive: 0.835%
NS(=O)(=O)c1ccc(CCNC(=O)COC(=O)C2CCN(c3ccc(C(F)(F)F)cn3)CC2)cc1	inactive: -4.32%
COc1ccc(NS(=O)(=O)c2ccc(-c3ccccn3)s2)cc1	inactive: 25.3%
CC1(c2nnc(-c3cccc(Cl)c3)o2)CC(c2cccc(Cl)c2)=NO1 (centres undefined)	inactive: 8.1%
CN(Cc1ccc(Cl)cc1Cl)C(=O)c1cccc(S(=O)(=O)N2CCN(c3ccccc3)CC2)c1	inconclusive: -44.2%
COc1ccc(N(C(=O)c2snc(C(N)=O)c2N)C(C(=O)NC2CCCC2)c2ccc(C)o2)c(OC)c1 (centres undefined)	inconclusive: -34.8%
CCOC(=O)C1CCCN(C(=O)c2ccc3sccc3c2)CC1 (centres undefined)	inactive: 37.3%
Cc1cc2nc(CCN(C(=S)NCC(C)C)C3CCCC3)[nH]c2cc1C	active: -65.8%
CCn1c2ccccc2c2cc(NC(=O)c3cccc(OC)c3)ccc21	inconclusive: -36.5%
COc1ccc(CNC(=O)N2CCN(S(=O)(=O)c3ccc(C)cc3C)CC2)cc1	inconclusive: -32.5%
CC1CCCCN1S(=O)(=O)c1ccc(S(=O)(=O)NCCc2ccncc2)cc1 (centres undefined)	inconclusive: -35.6%
CCOc1ccccc1N1CCN(Cc2cnc(-c3ccccc3)[nH]2)CC1	inconclusive: -42.2%
COc1cc(-c2nnc(SCC(=O)c3ccc(C)cc3)o2)cc(OC)c1OC	inactive: -3.43%
O=C(Nc1cccnc1)Nc1ccc(Br)cc1Cl	inconclusive: -49.5%
COC(/C=C/Nc1ccc(OC)cc1)=C(C#N)C#N	active: -58.9%
Cc1ccc(S(=O)(=O)N2CCN(c3nc(CN4CCCC4)nc4sc(C)c(C)c34)CC2)cc1	inconclusive: -31.8%
Cc1cc([N+](=O)[O-])ccc1NC(=O)/C=C/c1cccs1	inconclusive: -32.6%
C=C(C)[C@@H]1CC=C(CN2CCC(CCOC)(C(=O)OCC)CC2)CC1	inconclusive: -36.6%

Compound	activity change
O=C(NCCc1ccccc1)C(=Cc1ccc(C(=O)O)cc1)C(=O)NCCc1ccccc1	inconclusive: -40%
CN(C)S(=O)(=O)N1CCc2ccc(NC(=O)c3ccc(C(F)(F)F)cc3)cc2C1	inconclusive: -30.8%
Cc1ccc(C2(c3ccccc3)NC(=O)N(CC(=O)NCc3ccccc3)C2=O)cc1C (centres undefined)	inconclusive: -39.1%
COc1ccccc1N1CCN(C(=O)CSc2ccc3c(C)cc(C)nc3n2)CC1	inconclusive: -48.2%
O=C(Cn1c(C(=O)N2CCc3ccccc3C2)cc2sccc21)c1ccccc1	inconclusive: -40%
Cc1ccccc1NC1=C(Cl)C(=O)OC1OC(=O)c1ccco1 (centres undefined)	inconclusive: -31.9%
COC(=O)c1sccc1-c1ccc(C(=O)Nc2ccccc2)o1	inactive: 15.5%
COc1ccc(/C=N/n2c(N)c(S(=O)(=O)c3cccs3)c3nc4ccccc4nc32)cc1OC	inconclusive: -32.6%
CCOc1ccc(N(Cc2ccc(OC)cc2)C(=O)c2ccco2)cc1	inconclusive: -47.6%
O=c1oc2ccccc2n1CCCOc1ccccc1	inactive: -23.1%
COc1ccc(NC(=O)CN(C)CC(=O)Nc2ccc(C)c(S(=O)(=O)N3CCCCC3)c2)cc1	inconclusive: -41.4%
CC(=O)c1ccc(NC(=O)CN2C(=O)COc3ccc(Cl)cc32)cc1	inconclusive: -32.2%
O=S(=O)(c1ccc(-c2cnc(C3CC3)o2)cc1)N1CCN(c2ccccc2)CC1	inactive: 0%
CC(C)n1c(SCC(=O)c2ccc3c(c2)OCCO3)nc2c1c(=O)n(C)c(=O)n2C	inconclusive: -36%
CCOc1ccccc1CN1CCN(C2CCN(c3ccccc3F)CC2)CC1CCO (centres undefined)	inconclusive: -47.1%
Cc1ccc(-n2cc(CN(C)Cc3nccn3C)c(-c3cccc(C)c3)n2)cc1	active: -85.3%
Cc1c(Cl)cccc1NC(=S)N(CCN(C)C)C(C)c1ccco1 (centres undefined)	inconclusive: -32.8%
CN(C)S(=O)(=O)c1ccc(N=Cc2c(C(F)(F)F)[nH]n(C)c2=O)cc1	inactive: 30.9%
CC1CCc2cc(F)ccc2N1C(=O)C1(C)CC1(Cl)Cl (centres undefined)	inactive: 4.37%
Nc1c2c(nc3sc4c(c13)CCCCC4)CCCCC2	inconclusive: -49%
COc1ccc(Cl)c2sc(N(CCN(C)C)C(=O)c3ccc4c(c3)OCCO4)nc12	active: -95.6%
COc1ccc(N(C(=O)/C=C/C(=O)Nc2cc(C)on2)C(C(=O)NC2CCCC2)c2ccccc2C)cc1 (centres undefined)	active: -86.5%
CSc1ccc(C(=O)C2CCCN(Cc3cccn3-c3cccnc3)C2)cc1 (centres undefined)	active: -96.5%

Compound	activity change
CCNc1nc(N)nc(-c2cc(Cl)ccc2O)n1	active: -85.5%
CCCc1[nH]nc2c1C(c1ccc(Br)s1)C(C#N)=C(N)O2 (centres undefined)	active: -99.8%
COc1ccc2c(c1OC)C(=O)N1N=C(c3ccc(Br)cc3)CC21 (centres undefined)	inconclusive: -43.1%
O=c1ccc(Oc2nc(N3CCOCC3)nc(N3CCOCC3)n2)nn1-c1ccccc1	inconclusive: -32.4%
CN(C)c1ccc(N2C(=NC(=O)CCC3CCCC3)SC3CS(=O)(=O)CC32)cc1 (centres undefined)	inactive: 20%
COc1ccc(Cl)cc1S(=O)(=O)NC(C)C(=O)NCCCn1ccnc1 (centres undefined)	inactive: 6.87%
CCc1c(-c2ccccc2OC)ncn1Cc1cccc(-c2ccccc2)c1	active: -52.9%
O=C(COc1cccc2ccccc12)Nc1cc(Cl)ccc1C(=O)O	active: -53.2%
COc1ccc(N2CCN(C(=O)COC(=O)c3nc(Cl)ccc3Cl)CC2)cc1	inactive: 3.75%
CC(C)c1ccc(-c2noc(C3CCCN(C(=O)c4ccc(F)cc4F)C3)n2)cc1 (centres undefined)	inconclusive: -35.5%
COc1ccc(-n2nc(N)c(C(N)=O)n2)cc1	inconclusive: -39%
Cc1ccccc1CNC(=O)c1[nH]c(C(F)(F)F)nc1-c1ccccc1	inactive: 13.4%
COCC(=O)Nc1ccc(N2CCOCC2)c(S(=O)(=O)Nc2ccccc2OC)c1	inactive: -2.41%
COc1ccc(-c2nnc(-c3ccccc3)o2)cc1OC	inconclusive: -30.2%
CN(Cc1ccccc1)C(=O)c1nc[nH]c1C(=O)N1CCN(c2ccccc2)CC1	inactive: 20.9%
O=S(=O)(CCN1CCSCC1)c1ccc(Cl)cc1	active: -73.1%
CC(C)(C)OC(=O)N[C@H](C(=O)OC(C)(C)C)c1ccc2c(c1)OCO2	inactive: -6.86%
N#Cc1c(NC(=O)c2ccc([N+](=O)[O-])o2)sc2c1CCC2	active: -94.1%
Cc1ccc(C)c(NS(=O)(=O)c2cc(C(=O)NCc3ccco3)ccc2C)c1	inconclusive: -40.7%
COc1ccc(C(=O)N[C@H](C(=O)Nc2cccc(S(=O)(=O)N3CCOCC3)c2)C(C)C)cc1	inconclusive: -30.3%
Cc1ccc(Cl)cc1NC(=O)C1CCCN1S(=O)(=O)c1ccc(-c2ccc(=O)[nH]n2)s1 (centres undefined)	active: -76.9%
COc1ccc(Br)cc1CN1CCN(Cc2c[nH]c3ccccc23)CC1	active: -74.2%
O=c1cc(OCc2ccccc2)cc[nH]1	active: -65.7%

Compound	activity change
CC1CCCC(C)N1C(=O)CSc1ncccn1 (centres undefined)	inactive: 32.1%
O=C(NCc1ccccc1F)Nc1nnc([C@H]2C[C@H](O)[C@@H](CO)O2)s1	inactive: 3.87%
O=C(CSc1nc2ccccc2c(=O)n1CCCN1CCOCC1)Nc1ccc2c(c1)OCO2	inconclusive: -42.9%
O=C(CN1CCN(C/C=C/c2ccccc2)CC1)NC(=O)NC1CCCCC1	inconclusive: -43.8%
COCCn1nnnc1C(c1ccccc1)N1CCN(Cc2ccc3c(c2)OCO3)CC1 (centres undefined)	inactive: -18.1%
Cc1ccc(-c2nc(N)sc2CC(=O)OCC(=O)NCC2CCCO2)cc1 (centres undefined)	inactive: -8.38%
S=c1[nH]nc(Cc2ccc(Br)cc2)n1/N=C/c1ccc(Cl)cc1	active: -62.6%
Cc1cccc2sc(N(CCN(C)C)C(=O)/C=C/c3cccs3)nc12	active: -93.3%
O=C1CCC(c2ccc3c(c2)CCC3)=NN1	inactive: -10.5%
COCc1cc(N2CCOCC2)nc(-c2ccccc2)n1	inconclusive: -39%
CN(C)c1oc(-c2ccccc2Cl)nc1P(=O)(c1ccccc1)c1ccccc1	active: -62.3%
COc1ccc(C(=O)Cn2c(NCCCO)nc3ccccc32)cc1	inconclusive: -36.5%
CC12CCC(C(=O)Nc3cccc(Cl)c3)(C(Br)C1=O)C2(C)C (centres undefined)	inactive: 14.1%
COc1ccccc1NC(=O)COc1cccc2c1CCNC2=O	inactive: -1.63%
O=C(Nc1ccc(C(F)(F)F)cc1)c1csc(-c2ccncc2)n1	inconclusive: -45%
O=S(=O)(NCC(O)c1ccccc1)c1ccc(-c2ccccn2)s1 (centres undefined)	inactive: -9.4%
C=C1CCc2c([nH]c3ccc(OCC(C)C)cc23)C1=O	active: -98.8%
O=C(Nc1ccc(Cn2ccnc2)cc1)c1cccc(C(F)(F)F)c1	active: -54.3%
Cc1sc2ncnc(Oc3ccc(-n4ccnc4)cc3)c2c1C	inconclusive: -47%
C[C@@H]1CCCCO[C@@H](CN(C)CC2CCCCC2)[C@@H](C)CN([C@H](C)CO)C(=O)c2cc(NS(=O)(=O)c3ccc(Cl)cc3)ccc2O1	inconclusive: -42.3%
